Measured values taken from paper PMC7803540.
These are yes or no findings as the source states them, for the method shown. Binding seen in cells or lysates may run through a third protein. Some results given as binding are weak or reduced against the parent protein; the word gives no strength.

Amino acid sequences for entries named in this document (tags omitted).
UniProt Q00987: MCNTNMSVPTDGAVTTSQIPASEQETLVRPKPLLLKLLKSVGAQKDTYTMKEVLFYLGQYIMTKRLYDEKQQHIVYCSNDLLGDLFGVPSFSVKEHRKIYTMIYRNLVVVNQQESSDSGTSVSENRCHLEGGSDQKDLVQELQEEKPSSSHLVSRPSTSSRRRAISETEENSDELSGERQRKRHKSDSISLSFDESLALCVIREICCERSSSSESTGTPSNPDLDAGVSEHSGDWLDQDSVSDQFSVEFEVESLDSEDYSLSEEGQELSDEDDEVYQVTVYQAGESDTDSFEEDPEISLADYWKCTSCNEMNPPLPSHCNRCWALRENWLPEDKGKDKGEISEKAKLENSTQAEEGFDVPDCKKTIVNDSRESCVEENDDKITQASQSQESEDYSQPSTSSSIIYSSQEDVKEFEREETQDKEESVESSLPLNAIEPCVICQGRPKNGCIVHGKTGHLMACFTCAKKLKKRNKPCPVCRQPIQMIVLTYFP
UniProt P46934: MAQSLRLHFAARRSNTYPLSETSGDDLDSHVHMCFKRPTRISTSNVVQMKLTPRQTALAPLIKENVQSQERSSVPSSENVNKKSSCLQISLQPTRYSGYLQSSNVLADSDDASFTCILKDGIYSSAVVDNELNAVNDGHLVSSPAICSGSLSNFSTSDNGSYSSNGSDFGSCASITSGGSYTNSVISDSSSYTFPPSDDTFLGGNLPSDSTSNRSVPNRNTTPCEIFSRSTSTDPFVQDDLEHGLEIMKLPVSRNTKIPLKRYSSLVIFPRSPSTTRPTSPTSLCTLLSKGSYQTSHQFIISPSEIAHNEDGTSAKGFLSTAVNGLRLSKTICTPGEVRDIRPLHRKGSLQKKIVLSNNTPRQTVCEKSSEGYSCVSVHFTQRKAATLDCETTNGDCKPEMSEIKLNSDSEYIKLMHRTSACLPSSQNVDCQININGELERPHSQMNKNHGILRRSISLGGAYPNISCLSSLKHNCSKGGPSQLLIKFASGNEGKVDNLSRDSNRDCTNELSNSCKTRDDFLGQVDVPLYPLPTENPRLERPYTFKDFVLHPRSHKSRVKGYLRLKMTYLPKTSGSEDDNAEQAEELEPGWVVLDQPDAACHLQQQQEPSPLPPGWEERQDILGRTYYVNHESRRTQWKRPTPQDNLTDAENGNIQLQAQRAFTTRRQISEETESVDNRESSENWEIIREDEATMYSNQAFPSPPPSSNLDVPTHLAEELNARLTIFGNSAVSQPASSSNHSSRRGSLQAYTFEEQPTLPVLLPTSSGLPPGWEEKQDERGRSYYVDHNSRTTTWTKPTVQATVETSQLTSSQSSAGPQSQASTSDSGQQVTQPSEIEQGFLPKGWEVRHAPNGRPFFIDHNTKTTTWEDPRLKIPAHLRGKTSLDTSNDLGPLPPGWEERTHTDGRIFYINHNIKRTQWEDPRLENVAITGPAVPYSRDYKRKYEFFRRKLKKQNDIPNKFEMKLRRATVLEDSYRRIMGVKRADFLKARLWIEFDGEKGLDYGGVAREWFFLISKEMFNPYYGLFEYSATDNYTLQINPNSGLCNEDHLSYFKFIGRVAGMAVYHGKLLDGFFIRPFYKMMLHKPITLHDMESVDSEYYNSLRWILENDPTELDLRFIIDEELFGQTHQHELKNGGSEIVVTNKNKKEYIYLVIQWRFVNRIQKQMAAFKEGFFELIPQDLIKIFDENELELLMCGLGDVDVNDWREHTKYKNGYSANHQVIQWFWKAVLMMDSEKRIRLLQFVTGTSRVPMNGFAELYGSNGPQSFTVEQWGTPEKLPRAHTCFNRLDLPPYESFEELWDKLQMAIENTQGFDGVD
UniProt Q9HAU4: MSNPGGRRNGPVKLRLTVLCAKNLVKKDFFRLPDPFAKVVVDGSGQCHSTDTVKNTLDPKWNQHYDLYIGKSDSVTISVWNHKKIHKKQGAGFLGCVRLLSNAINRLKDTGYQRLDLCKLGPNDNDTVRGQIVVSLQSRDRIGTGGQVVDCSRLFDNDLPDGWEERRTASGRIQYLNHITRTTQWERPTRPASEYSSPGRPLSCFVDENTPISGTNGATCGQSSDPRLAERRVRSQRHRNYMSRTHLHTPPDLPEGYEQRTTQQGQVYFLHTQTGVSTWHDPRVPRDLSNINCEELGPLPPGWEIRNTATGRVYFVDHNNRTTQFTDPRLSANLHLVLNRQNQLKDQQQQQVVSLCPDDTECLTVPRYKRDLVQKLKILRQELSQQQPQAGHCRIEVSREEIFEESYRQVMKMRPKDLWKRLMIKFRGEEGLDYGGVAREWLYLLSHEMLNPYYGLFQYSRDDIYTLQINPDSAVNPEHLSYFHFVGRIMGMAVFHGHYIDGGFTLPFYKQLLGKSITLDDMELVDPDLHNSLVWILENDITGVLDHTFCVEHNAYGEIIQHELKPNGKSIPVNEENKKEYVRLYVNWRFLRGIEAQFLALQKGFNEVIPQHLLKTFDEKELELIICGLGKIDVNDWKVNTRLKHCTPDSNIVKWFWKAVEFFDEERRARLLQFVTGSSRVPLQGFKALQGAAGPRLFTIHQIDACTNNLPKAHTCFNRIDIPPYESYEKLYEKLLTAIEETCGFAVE
UniProt Q86TM6: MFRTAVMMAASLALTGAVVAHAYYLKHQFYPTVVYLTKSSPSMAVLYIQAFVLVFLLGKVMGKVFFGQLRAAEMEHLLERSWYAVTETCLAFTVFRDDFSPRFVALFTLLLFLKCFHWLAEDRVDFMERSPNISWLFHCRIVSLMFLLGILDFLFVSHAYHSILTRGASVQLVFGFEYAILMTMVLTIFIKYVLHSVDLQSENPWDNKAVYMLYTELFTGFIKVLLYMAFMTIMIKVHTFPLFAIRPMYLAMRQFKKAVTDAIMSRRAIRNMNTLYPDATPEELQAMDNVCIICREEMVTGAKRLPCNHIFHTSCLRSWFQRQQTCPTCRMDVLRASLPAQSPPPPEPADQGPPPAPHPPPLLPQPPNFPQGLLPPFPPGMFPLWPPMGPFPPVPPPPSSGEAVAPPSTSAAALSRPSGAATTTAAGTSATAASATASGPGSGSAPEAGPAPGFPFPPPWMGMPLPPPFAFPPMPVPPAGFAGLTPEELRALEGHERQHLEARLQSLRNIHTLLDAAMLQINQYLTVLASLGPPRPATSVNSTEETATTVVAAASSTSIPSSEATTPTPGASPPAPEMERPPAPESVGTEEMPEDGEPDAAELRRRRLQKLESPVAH

T1: SIX3 (human (endogenous in A549)) (UniProt O95343)
T1 sequence: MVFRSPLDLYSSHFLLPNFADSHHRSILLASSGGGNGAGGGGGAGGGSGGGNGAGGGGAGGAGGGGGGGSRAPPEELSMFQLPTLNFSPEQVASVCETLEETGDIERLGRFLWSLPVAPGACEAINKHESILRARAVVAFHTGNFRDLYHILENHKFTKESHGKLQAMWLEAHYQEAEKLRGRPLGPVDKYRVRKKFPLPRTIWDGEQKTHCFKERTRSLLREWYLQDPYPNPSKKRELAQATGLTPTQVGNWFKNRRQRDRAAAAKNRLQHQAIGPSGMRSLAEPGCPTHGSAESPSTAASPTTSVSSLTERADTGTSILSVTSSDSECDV


The molecules below were run against T1, SIX3 (human (endogenous in A549)) (assay: co-IP; A549 cell lysates, endogenous proteins; precipitated with anti-SIX3 or control IgG antibody, immunoprecipitates washed at least five times and immunoblotted with antibodies to E3 ligases).

Row | binding | Molecule
1 | no binding | MDM2 (from UniProt Q00987 1-491) (enzyme)
2 | no binding | NEDD4 (from UniProt P46934 1-1319) (enzyme)
3 | binds | SMURF2 (from UniProt Q9HAU4 1-748) (enzyme)
4 | no binding | SYVN1 (from UniProt Q86TM6 1-617) (enzyme)
5 | no binding | RNF6 (enzyme, UniProt Q9Y252 1-685) MNQSRSRSDGGSEETLPQDHNHHENERRWQQERLHREEAYYQFINELNDEDYRLMRDHNLLGTPGEITSEELQQRLDGVKEQLASQPDLRDGTNYRDSEVPRESSHEDSLLEWLNTFRRTGNATRSGQNGNQTWRAVSRTNPNNGEFRFSLEIHVNHENRGFEIHGEDYTDIPLSDSNRDHTANRQQRSTSPVARRTRSQTSVNFNGSSSNIPRTRLASRGQNPAEGSFSTLGRLRNGIGGAAGIPRANASRTNFSSHTNQSGGSELRQREGQRFGAAHVWENGARSNVTVRNTNQRLEPIRLRSTSNSRSRSPIQRQSGTVYHNSQRESRPVQQTTRRSVRRRGRTRVFLEQDRERERRGTAYTPFSNSRLVSRITVEEGEESSRSSTAVRRHPTITLDLQVRRIRPGENRDRDSIANRTRSRVGLAENTVTIESNSGGFRRTISRLERSGIRTYVSTITVPLRRISENELVEPSSVALRSILRQIMTGFGELSSLMEADSESELQRNGQHLPDMHSELSNLGTDNNRSQHREGSSQDRQAQGDSTEMHGENETTQPHTRNSDSRGGRQLRNPNNLVETGTLPILRLAHFFLLNESDDDDRIRGLTKEQIDNLSTRHYEHNSIDSELGKICSVCISDYVTGNKLRQLPCMHEFHIHCIDRWLSENCTCPICRQPVLGSNIANNG
